# Reference: the supplement of paper PMC4166925
# ± gives the standard deviation of the averaged measurements. Whole data set: some 33,000 sequences, median “E-score (dimensionless, -0.5 to 0.5)” near -0.046, cut for the highest 2% near 0.36. Some of the results follow.
# Test system: T1, SpTbr T-box DNA-binding domain (GST fusion)
# T1 sequence: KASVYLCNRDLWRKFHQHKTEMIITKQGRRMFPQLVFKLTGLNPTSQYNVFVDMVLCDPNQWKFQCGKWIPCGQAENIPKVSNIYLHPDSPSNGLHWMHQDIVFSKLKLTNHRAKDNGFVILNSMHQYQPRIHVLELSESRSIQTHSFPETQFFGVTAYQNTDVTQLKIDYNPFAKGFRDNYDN
# Assay: PBM E-score of 8-mer (E-score (dimensionless, -0.5 to 0.5)); Tbr is Tbrain of the sea star Patiria miniata (Pm) or the sea urchin Strongylocentrotus purpuratus (Sp); higher = stronger binding preference; most listed sequences are background and not binding sites
# Details: the construct has about 5 more residues each side
# Outline: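 Universal Agilent oligonucleotide arrays, made double-stranded by primer extension, were incubated with 200 nM GST-fused Tbr T-box DNA-binding domain in PBS (pH 7.5). The protein was expressed in BL21 E. coli at 20 °C and purified by glutathione affinity chromatography. After scanning and quantification, the Universal PBM Analysis Suite assigned an enrichment E-score to each ungapped 8-mer, averaged over duplicate arrays.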
row,Sequence,PBM E-score of 8-mer
1,CTGAGTGC,0.0208 ± 0.023
2,CTACTAAA,-0.136 ± 0.022
3,CTTGGTTA,-0.192 ± 0.076
4,CCGGGCCA,-0.207 ± 0.05
5,GTAAAGCA,-0.157 ± 0.021
6,ATAAATAC,0.0531 ± 0.074
7,CGACTCCG,0.0313 ± 0.055
8,TGGGCAAA,0.0144 ± 0.028
9,AAATAATC,0.0658 ± 0.044
10,ACGCGTTC,0.181 ± 0.086
11,AAAGCGCA,-0.0207 ± 0.1
12,CTAAAATA,-0.0993 ± 0.05
13,GAGCCATC,-0.0309 ± 0.039
14,CCACGAAA,0.0171 ± 0.1
15,CCCTCCCG,-0.191 ± 0.053
16,CATGCCAA,-0.0456 ± 0.096
17,ATGAAAGA,0.0262 ± 0.0019
18,AACTCCCG,0.0204 ± 0.022
19,TTACTCAA,0.00021 ± 0.08
20,ACTCGGCC,0.0521 ± 0.011
21,CTTCCCCC,-0.22 ± 0.011
22,ATGCATAC,-0.0639 ± 0.046

row,Sequence,PBM E-score of 8-mer
1,AGTGGTGA,0.232 ± 0.014
2,AGCCATAG,-0.026 ± 0.031
3,CCGGACGC,-0.184 ± 0.015
4,ACAAAACA,0.0943 ± 0.064
5,ATGTAGTG,-0.0103 ± 0.035
6,GTTATAAA,0.074 ± 0.028
7,CTCACAGA,0.107 ± 0.062
8,AGTTGCAG,-0.175 ± 0.073
9,GTTAGTAA,-0.0148 ± 0.072
10,AAGACTTG,-0.0194 ± 0.08
11,ACTTGATA,0.108 ± 0.039
12,CTGCGCCC,-0.162 ± 0.0045
13,CCTTTACC,-0.0178 ± 0.021
14,CGATTGCG,0.157 ± 0.013
15,GGTTATGA,-0.0949 ± 0.061
16,AAGCTCCC,-0.322 ± 0.0072
17,GGTGATCA,0.227 ± 0.0073
18,CAGGCTCA,-0.177 ± 0.03
19,ACGGAGTA,-0.323 ± 0.026
20,AGACATTG,-0.161 ± 0.068
21,TACTGAAA,-0.1869 ± 0.001
22,GGCTAAGA,-0.233 ± 0.0036

row,Sequence,PBM E-score of 8-mer
1,AGCGCCGG,-0.0591 ± 0.033
2,AACCAGTT,-0.00751 ± 0.037
3,CGTACACC,0.0648 ± 0.081
4,GCCCCGAC,-0.159 ± 0.06
5,AAAGGGCT,-0.198 ± 0.056
6,ACGCGCGT,0.293 ± 0.022
7,AGCCTCGG,-0.226 ± 0.0073
8,TATTATAA,0.0563 ± 0.02
9,AGATGTCA,0.139 ± 0.038
10,ACGTACAC,0.1791 ± 0.00065
11,CCAAAACG,-0.169 ± 0.086
12,TACACCAA,0.0641 ± 0.095
13,CCACAGGA,-0.22 ± 0.0092
14,AAGAGCCC,-0.278 ± 0.022
15,AGGCCACT,-0.0273 ± 0.0033
16,TCGCAGAA,0.00613 ± 0.035
17,AATAGTCT,-0.149 ± 0.054
18,TACCAAGA,-0.0491 ± 0.026
19,ATGTCGGC,-0.0704 ± 0.055
20,GCAGTTGA,-0.0353 ± 0.041
21,CCCCAGCA,-0.0347 ± 0.065
22,AACTGCCC,-0.108 ± 0.011

row,Sequence,PBM E-score of 8-mer
1,ACAGTTTC,0.143 ± 0.065
2,CTGGCGTC,0.101 ± 0.041
3,CACCCGAC,0.231 ± 0.033
4,ATTCCCTA,-0.192 ± 0.025
5,CCTTTTCA,0.081 ± 0.074
6,AAGCGCCA,0.123 ± 0.057
7,AGTCCAAA,-0.149 ± 0.066
8,ACTTCAAT,-0.0527 ± 0.032
9,ATTGTTGC,0.0572 ± 0.048
10,GCTACATA,-0.128 ± 0.046
11,CCACGACC,-0.173 ± 0.066
12,AGCTACTC,-0.117 ± 0.011
13,CACATTAC,0.205 ± 0.0094
14,AAAATGGG,-0.173 ± 0.048
15,AGCTCGGC,-0.0737 ± 0.003
16,AGCCACTA,0.075 ± 0.041
17,CGGTCATC,0.0532 ± 0.03
18,GAGAAGGA,-0.133 ± 0.0076
19,CACTATAG,0.146 ± 0.047
20,ACGTGCGG,0.206 ± 0.011
21,CTCTTCTA,-0.221 ± 0.083
22,ATATCCTA,-0.051 ± 0.047

row,Sequence,PBM E-score of 8-mer
1,GGATTTAC,-0.0213 ± 0.0077
2,CCCCACGG,-0.137 ± 0.017
3,GAATCTCA,0.00406 ± 0.035
4,GAAGGTAA,0.0468 ± 0.022
5,CTCAGATC,-0.0678 ± 0.025
6,ACGCCGTC,0.0176 ± 0.059
7,ACTAATGC,-0.00588 ± 0.022
8,AAGAACTG,-0.089 ± 0.092
9,AGCCTGAT,-0.0423 ± 0.035
10,GGCGTCGA,0.266 ± 0.04
11,ATACGCAC,0.153 ± 0.063
12,ATCGTCCA,-0.115 ± 0.02
13,TGTGGGAA,0.293 ± 0.038
14,CCGACCTC,-0.148 ± 0.046
15,CTCAGACA,0.0357 ± 0.066
16,AATCATTG,-0.00133 ± 0.019
17,CTTTAGAC,-0.109 ± 0.084
18,GTCTATTA,-0.237 ± 0.0052
19,CGTGGTTC,-0.173 ± 0.029
20,CACCCGTG,0.2 ± 0.006
21,AATTCCCC,-0.213 ± 0.067
